# The RNAGym collection of RNA variant scans (doi:10.1073/pnas.2313332121)
# This sample is rich in variants without activity.
# B1: TPR 5TU (parent)
# chain: GGAUCUUCUCGAUCUAACAAAAAAGACAAAUCUGCCACAAAGCUUGAGAGCAUCUUCGGAUGCAGAGGCGGCAGCCUUCGGUGGCGCGAUAGCGCCAACGUUCUCAACUAUGACACGCAAAACGCGUGCUCCGUUGAAUGGAGUUUAUCAUG
# Variants of: B1
# Assay: polymerase ribozyme fitness, log enrichment relative to wild type (log ratio); higher = more active; in vitro selection for triplet polymerase activity
# Procedure, shortened: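 Input and output libraries were sequenced on Illumina after a single in vitro selection round, run in triplicate on PCR-built, transcribed mutant libraries of each subunit of a heterodimeric triplet polymerase ribozyme. Selection annealed libraries to a biotinylated primer, the partner subunit and triplets, incubated them frozen at −7 °C, then gel-excised extended constructs for streptavidin-bead capture and RT-PCR. Genotypes with ≥10 input reads and ≥1 read per output were kept. Fitness is the logarithm, taken in base 2, of genotype enrichment divided by wild-type enrichment, using inverse-variance-weighted replicate averages.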
row,Variant,polymerase ribozyme fitness (log ratio)
1,A19U U33A G84A G92C G94C,≤ -4.2
2,A19U U53G C85U C105G C114U,≤ -4.2
3,A19U U55G C87A U102G U145G,≤ -4.2
4,A19U U56A A60G U104G G152A,-2.82
5,A19U U61A G86U A107G A115U G152U,≤ -4.2
6,A19U U61G C69G U82G G92A A98U C131G,≤ -4.2
7,A20C A21C A26U A52G C75U C85A A98G U111A U151A,≤ -4.2
8,A20C A21U C54U U55A C76G,≤ -4.2
9,A20C A23C A37G,≤ -4.2
10,A20C A23U A29U G92A A110U U139G A142G U144G,≤ -4.2
11,A20C A23U C27A G58U C72A A89G C99A A107C,≤ -4.2
12,A20C A24C A40G U53A U104C,≤ -4.2
13,A20C A24C G48A G141A,≤ -4.2
14,A20C A26U C38U G92U C99G U102G,≤ -4.2
15,A20C A28U C54U C85G U104G U151G,≤ -4.2
16,A20C A29G A121G,≤ -4.2
17,A20C A29U A66G C93A A121G G136C,≤ -4.2
18,A20C A29U U82C,≤ -4.2
19,A20C A30G C36U U56A G62U C93A C103A G133A U148A,≤ -4.2
20,A20C A30G U53A C105U,≤ -4.2
21,A20C A37U C54A G58A C87A U135A,≤ -4.2

row,Variant,polymerase ribozyme fitness (log ratio)
1,A20C A39C C76G C96U U146C,≤ -4.2
2,A20C A39C C79G A106G G124U,≤ -4.2
3,A20C A39G A40U C85A,≤ -4.2
4,A20C A39G A52C G67A U109G G140C U148C,≤ -4.2
5,A20C A39U C43U U61A A142C G143A C149U,≤ -4.2
6,A20C A40C U56A G92U,-0.349
7,A20C A40G A41U C87U C108U,≤ -4.2
8,A20C A40G A52G C85A A98G,-4.01
9,A20C A47C G59U A91G U109A U144G,≤ -4.2
10,A20C A49C C57A C75G C76U C93A,≤ -4.2
11,A20C A49C C79A G80A G92U A138U,≤ -4.2
12,A20C A52U C85U U109G U127G,≤ -4.2
13,A20C A60G,-0.605
14,A20C A66C C95U,≤ -4.2
15,A20C C27A A89G C93G U102G C103G C108U A138U,≤ -4.2
16,A20C C27G U44C G46U C57A A110U,≤ -4.2
17,A20C C27U G81A G86A C99G,-2.96
18,A20C C32A A52G A91U G94A C99U A147U G152U,-3.97
19,A20C C35U G100C A115U A137G U144A C149G,≤ -4.2
20,A20C C36A,-4.06
21,A20C C36A G71A G86C A91U C95A A97G G124A,≤ -4.2

row,Variant,polymerase ribozyme fitness (log ratio)
1,A20C C36U C85G C103G,≤ -4.2
2,A20C C38A C51U G58C C76U A137C,≤ -4.2
3,A20C C51A G100C,≤ -4.2
4,A20C C51U C54G C76U C93A,≤ -4.2
5,A20C C54G C76U G86C C87A A122C,≤ -4.2
6,A20C C54G G70C U77C,≤ -4.2
7,A20C C57U G58C A60U U61G C79G C87G A91U G140U,≤ -4.2
8,A20C C63G G152A,-2.4
9,A20C C76G,≤ -4.2
10,A20C C118U,-0.906
11,A20C G25C G34U C54A A91G A119U A122U G124U C125G,≤ -4.2
12,A20C G25U A28C U44A A66G G67C C95G U135A,≤ -4.2
13,A20C G25U A40U A41C G68U C75G C79A U82G C93A G124A,≤ -4.2
14,A20C G34A A47G U104G U130G A150G,≤ -4.2
15,A20C G34U C54U G84C U139A,≤ -4.2
16,A20C G46C C63U C108U C114G,≤ -4.2
17,A20C G48U G83U,-2.07
18,A20C G59C C79G C85U G117A C132G G143U U148G,≤ -4.2
19,A20C G65U U90G C93U C129A,≤ -4.2
20,A20C G70C G81U C87U C93U C103A,≤ -4.2
21,A20C G83C C118G U130G,≤ -4.2

row,Variant,polymerase ribozyme fitness (log ratio)
1,A20C G86A,-2.24
2,A20C G94A G136U,-3.83
3,A20C U31A A41C G48U C93U A97G G112C C116G,≤ -4.2
4,A20C U33C C79G A107U C116U G124C,≤ -4.2
5,A20C U44A C63U A66U G80C,≤ -4.2
6,A20C U44A U56G A89C A142C,≤ -4.2
7,A20C U53A C57G G86U G133U U146C,≤ -4.2
8,A20C U53A G62C G86U,≤ -4.2
9,A20C U55A G67C G124A A137U,≤ -4.2
10,A20C U56C U78G G81A C95A C103U G117A G140C A147C U148A,≤ -4.2
11,A20C U56G A60C U90A C95U,≤ -4.2
12,A20C U56G C57G C96G U139C U151C,≤ -4.2
13,A20C U77C C95G A97C A98C A113U A119U A147G C149G,≤ -4.2
14,A20C U78A C103G C105G,≤ -4.2
15,A20C U90G C99U G136C,≤ -4.2
16,A20G A23U G58C C87G A119U,≤ -4.2
17,A20G A26U G50C A52U U55C,≤ -4.2
18,A20G A28C A41U C57G A91U,≤ -4.2
19,A20G A28C A52G C95A C96U A107C U135G G136C G152A,≤ -4.2
20,A20G A28U G141C,≤ -4.2
21,A20G A30U C35U C51U,≤ -4.2
